# Laboratory results published in the supplement of paper PMC8728848.
# The other results are listed elsewhere or left out.
# Assays:
# Test in all cases: glycan array binding signal (z-score within array); higher = stronger binding
# Conditions in all cases: glycan notation: IUPAC condensed, linker removed
# GalNAc(b1-3)GalNAc = biological target: GalNAc(b1-3)GalNAc
# In short: (§1)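 Glycan array binding is given as a within-array Z-score, which can be read as non-binding when negative. The arrays, 3228 of them, came from the Consortium for Functional Glycomics database and were retained only where the protein sequence was available. Z-scores were averaged across arrays of the same protein sequence at different concentrations or buffers and across linkers.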
# GalNAc(b1-4)GlcNAc = biological target: GalNAc(b1-4)GlcNAc
# In short: as §1
# [1] = biological target: GalNAc(b1-4)GlcNAc(b1-2)Man(a1-3)[GalNAc(b1-4)GlcNAc(b1-2)Man(a1-6)]Man(b1-4)GlcNAc(b1-4)GlcNAc
# In short: as §1
# GalNAc(b1-6)GalNAc = biological target: GalNAc(b1-6)GalNAc
# In short: as §1
# Glc(a1-4)Glc = biological target: Glc(a1-4)Glc
# In short: as §1
# Glc(a1-6)Glc(a1-6)Glc = biological target: Glc(a1-6)Glc(a1-6)Glc
# In short: as §1
# Glc(b1-4)Glc = biological target: Glc(b1-4)Glc
# In short: as §1
# Glc(b1-6)Glc = biological target: Glc(b1-6)Glc
# In short: as §1
# GlcA(b1-3)Gal = biological target: GlcA(b1-3)Gal
# In short: as §1
# GlcA(b1-3)GlcNAc = biological target: GlcA(b1-3)GlcNAc
# In short: as §1
# GlcA(b1-6)Gal = biological target: GlcA(b1-6)Gal
# In short: as §1
# [2] = biological target: GlcNAc(a1-3)Gal(b1-4)GlcNAc
# In short: as §1
# [3] = biological target: GlcNAc(a1-4)Gal(b1-3)GlcNAc
# In short: as §1
# [4] = biological target: GlcNAc(a1-4)Gal(b1-4)GalNAc
# In short: as §1
# [5] = biological target: GlcNAc(a1-4)Gal(b1-4)GlcNAc
# In short: as §1
# [6] = biological target: GlcNAc(a1-4)Gal(b1-4)GlcNAc(b1-3)Gal(b1-4)Glc
# In short: as §1
# [7] = biological target: GlcNAc(a1-4)Gal(b1-4)GlcNAc(b1-3)Gal(b1-4)GlcNAc
# In short: as §1
# [8] = biological target: GlcNAc(a1-4)Gal(b1-4)GlcNAc(b1-3)Gal(b1-4)GlcNAc(b1-3)Gal(b1-4)GlcNAc
# In short: as §1
# [9] = biological target: GlcNAc(a1-4)Gal(b1-4)GlcNAc(b1-3)Gal(b1-4)[Fuc(a1-3)]GlcNAc(b1-3)Gal(b1-4)[Fuc(a1-3)]GlcNAc
# In short: as §1
# [10] = biological target: GlcNAc(a1-6)Gal(b1-4)GlcNAc
# In short: as §1
# [11] = biological target: GlcNAc(b1-2)Gal(b1-3)GalNAc
# In short: as §1
# [12] = biological target: GlcNAc(b1-2)Man(a1-3)[GlcNAc(b1-2)Man(a1-6)]Man(b1-4)GlcNAc(b1-4)GlcNAc
# In short: as §1
# [13] = biological target: GlcNAc(b1-2)Man(a1-3)[GlcNAc(b1-2)Man(a1-6)]Man(b1-4)GlcNAc(b1-4)[Fuc(a1-6)]GlcNAc
# In short: as §1
# [14] = biological target: GlcNAc(b1-2)Man(a1-3)[GlcNAc(b1-4)][GlcNAc(b1-2)Man(a1-6)]Man(b1-4)GlcNAc(b1-4)GlcNAc
# In short: as §1
# [15] = biological target: GlcNAc(b1-2)[GlcNAc(b1-4)]Man(a1-3)[GlcNAc(b1-2)Man(a1-6)]Man(b1-4)GlcNAc(b1-4)GlcNAc
# In short: as §1
# [16] = biological target: GlcNAc(b1-2)[GlcNAc(b1-4)]Man(a1-3)[GlcNAc(b1-4)][GlcNAc(b1-2)Man(a1-6)]Man(b1-4)GlcNAc(b1-4)GlcNAc
# In short: as §1
# [17] = biological target: GlcNAc(b1-2)[GlcNAc(b1-4)]Man(a1-3)[GlcNAc(b1-4)][GlcNAc(b1-2)[GlcNAc(b1-6)]Man(a1-6)]Man(b1-4)GlcNAc(b1-4)GlcNAc
# In short: as §1
# [18] = biological target: GlcNAc(b1-2)[GlcNAc(b1-6)]Man(a1-6)[GlcNAc(b1-2)Man(a1-3)]Man(b1-4)GlcNAc(b1-4)GlcNAc
# In short: as §1
# [19] = biological target: GlcNAc(b1-2)[GlcNAc(b1-6)]Man(a1-6)[GlcNAc(b1-2)Man(a1-3)][GlcNAc(b1-4)]Man(b1-4)GlcNAc(b1-4)GlcNAc
# In short: as §1
# GlcNAc(b1-3)Gal = biological target: GlcNAc(b1-3)Gal
# In short: as §1
# [20] = biological target: GlcNAc(b1-3)Gal(b1-3)GalNAc
# In short: as §1
# GlcNAc(b1-3)Gal(b1-4)Glc = biological target: GlcNAc(b1-3)Gal(b1-4)Glc
# In short: as §1
# [21] = biological target: GlcNAc(b1-3)Gal(b1-4)GlcNAc
# In short: as §1
# [22] = biological target: GlcNAc(b1-3)Gal(b1-4)GlcNAc(b1-3)Gal(b1-4)GlcNAc
# In short: as §1
# GlcNAc(b1-3)GalNAc = biological target: GlcNAc(b1-3)GalNAc
# In short: as §1
# GlcNAc(b1-3)Man = biological target: GlcNAc(b1-3)Man
# In short: as §1
# [23] = biological target: GlcNAc(b1-3)[GlcNAc(b1-4)][GlcNAc(b1-6)]GlcNAc
# In short: as §1
# [24] = biological target: GlcNAc(b1-3)[GlcNAc(b1-6)]Gal(b1-4)GlcNAc
# In short: as §1
# [25] = biological target: GlcNAc(b1-3)[GlcNAc(b1-6)]GalNAc
# In short: as §1
# [26] = biological target: GlcNAc(b1-4)Gal(b1-4)GlcNAc
# In short: as §1
# GlcNAc(b1-4)GlcNAc = biological target: GlcNAc(b1-4)GlcNAc
# In short: as §1
# [27] = biological target: GlcNAc(b1-4)GlcNAc(b1-4)GlcNAc
# In short: as §1
# [28] = biological target: GlcNAc(b1-4)GlcNAc(b1-4)GlcNAc(b1-4)GlcNAc(b1-4)GlcNAc
# In short: as §1
# [29] = biological target: GlcNAc(b1-4)GlcNAc(b1-4)GlcNAc(b1-4)GlcNAc(b1-4)GlcNAc(b1-4)GlcNAc
# In short: as §1
# [30] = biological target: GlcNAc(b1-4)[GlcNAc(b1-6)]GalNAc
# In short: as §1
binder,measurement,setting,value
Tectonin 2 (Laccaria bicolor) (protein) MPWKGISGSLSRISAGSVTNVWGVNAANNIYRYTGDDAKPWVQIPGALTDIGAAADGTVWGVNAAGNIYRYVWDSNHWTQIKGALKRISAGSRTNVWGVNAGGAIYRYTGDDANPWVQIPGVLSDIGAGADGTVWGVNAAGEIYRYTGDQGDPNHWVKIPGALSAISAGIKTNVWGVNSANNIYTSTGDDKNPWLGIGGSLVDIGAGTDGVVWGVNAGGGIYRWIRD,glycan array binding signal (z-score),GalNAc(b1-3)GalNAc,-0.168
same,glycan array binding signal (z-score),GalNAc(b1-4)GlcNAc,-0.434
same,glycan array binding signal (z-score),[1],-0.002
same,glycan array binding signal (z-score),GalNAc(b1-6)GalNAc,-0.588
same,glycan array binding signal (z-score),Glc(a1-4)Glc,-0.35
same,glycan array binding signal (z-score),Glc(a1-6)Glc(a1-6)Glc,-0.136
same,glycan array binding signal (z-score),Glc(b1-4)Glc,-0.277
same,glycan array binding signal (z-score),Glc(b1-6)Glc,-0.563
same,glycan array binding signal (z-score),GlcA(b1-3)Gal,-0.286
same,glycan array binding signal (z-score),GlcA(b1-3)GlcNAc,4.49
same,glycan array binding signal (z-score),GlcA(b1-6)Gal,-0.284
same,glycan array binding signal (z-score),[2],-0.184
same,glycan array binding signal (z-score),[3],-0.298
same,glycan array binding signal (z-score),[4],-0.044
same,glycan array binding signal (z-score),[5],-0.315
same,glycan array binding signal (z-score),[6],-0.369
same,glycan array binding signal (z-score),[7],-0.238
same,glycan array binding signal (z-score),[8],-0.08
same,glycan array binding signal (z-score),[9],2.15
same,glycan array binding signal (z-score),[10],-0.426
same,glycan array binding signal (z-score),[11],-0.13
same,glycan array binding signal (z-score),[12],-0.319
same,glycan array binding signal (z-score),[13],0.258
same,glycan array binding signal (z-score),[14],-0.521
same,glycan array binding signal (z-score),[15],-0.676
same,glycan array binding signal (z-score),[16],-0.327
same,glycan array binding signal (z-score),[17],0.046
same,glycan array binding signal (z-score),[18],-0.312
same,glycan array binding signal (z-score),[19],-0.392
same,glycan array binding signal (z-score),GlcNAc(b1-3)Gal,-0.423
same,glycan array binding signal (z-score),[20],-0.024
same,glycan array binding signal (z-score),GlcNAc(b1-3)Gal(b1-4)Glc,-0.406
same,glycan array binding signal (z-score),[21],-0.274
same,glycan array binding signal (z-score),[22],-0.22
same,glycan array binding signal (z-score),GlcNAc(b1-3)GalNAc,-0.388
same,glycan array binding signal (z-score),GlcNAc(b1-3)Man,-0.371
same,glycan array binding signal (z-score),[23],-0.295
same,glycan array binding signal (z-score),[24],-0.541
same,glycan array binding signal (z-score),[25],-0.21
same,glycan array binding signal (z-score),[26],0.024
same,glycan array binding signal (z-score),GlcNAc(b1-4)GlcNAc,-0.347
same,glycan array binding signal (z-score),[27],0.852
same,glycan array binding signal (z-score),[28],-0.334
same,glycan array binding signal (z-score),[29],-0.339
same,glycan array binding signal (z-score),[30],-0.451
